From paper PMC6451091 come the findings set out here.

Settings in all cases: 20 mM HEPES pH 7.9, 100 mM NaCl, 1 mM DTT, 0.2 mg/mL BSA, 0.02% Triton X-100, 2% milk, 0.4 mg/mL salmon testes DNA; 1 h; temperature not stated; high values mean tight binding; double strand, one strand shown; sequences stand for … in GCCTAGCAC…GTGCTAGGTCTTGATTCGCTTGACGCTGCTG
The target of one assay is PU.1 (IVT) (UniProt P17947). Nature of the assay: protein-binding microarray (PBM).
The target in assay [1] is PU.1 (endogenous, THP-1 nuclear extract) (UniProt P17947). Nature of the assay: nuclear extract protein-binding microarray (nextPBM).
Assay [2] has as its target T1, FLI1 (endogenous, THP-1 nuclear extract) (UniProt Q01543).
T1 sequence: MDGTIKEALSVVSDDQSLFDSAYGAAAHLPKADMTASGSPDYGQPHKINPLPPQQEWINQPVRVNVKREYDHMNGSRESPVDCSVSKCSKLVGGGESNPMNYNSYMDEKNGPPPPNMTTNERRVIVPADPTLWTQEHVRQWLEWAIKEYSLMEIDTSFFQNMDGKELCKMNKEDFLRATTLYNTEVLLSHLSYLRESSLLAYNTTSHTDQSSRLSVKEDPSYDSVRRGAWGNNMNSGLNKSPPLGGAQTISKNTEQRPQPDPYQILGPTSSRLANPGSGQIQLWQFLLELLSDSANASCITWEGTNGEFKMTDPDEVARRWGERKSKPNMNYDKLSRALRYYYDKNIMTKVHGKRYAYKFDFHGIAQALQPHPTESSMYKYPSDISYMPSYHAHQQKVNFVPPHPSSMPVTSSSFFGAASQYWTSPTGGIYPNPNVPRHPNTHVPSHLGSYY
The description is as above.

The list shows a part of the results. For part of these data: At the low end of the ranking the order means little. For part of these data: The protein was read in a cell extract, so binding may be indirect.

Turning to AAAAAAAGGAAGTACAGTAA, the values for the binding signal (with PU.1 (IVT); in assay [1]; in assay [2]) were 6.54 z-score, 6.74 z-score and 3.27 z-score, respectively.

Take GAAAAGAGGAACTGTGCAGG: the values for the binding signal (with PU.1 (IVT); in assay [1]; in assay [2]) were 6.68 z-score, 6.59 z-score and 2.62 z-score, respectively.

For the sequence AAAAACAGGAAGTGGAAAAA, the binding signal came to 8.21 z-score in the assay with PU.1 (IVT), 6.94 z-score in assay [1] and 5.12 z-score in assay [2].

Turning to GTAAAGAGGAAGTCAGACTG, the binding signal with PU.1 (IVT) was 6.96 z-score; in assay [1] it was 6.98 z-score; in assay [2], 3.31 z-score.

On to GAGGAGAGGAAGTGGAGACT, for which the values for the binding signal (with PU.1 (IVT); in assay [1]; in assay [2]) were 3.67 z-score, 3.94 z-score and 2.8 z-score, respectively.

In the case of AAAAAAAGGAACTCGCTAGA, the binding signal is 4.16 z-score with PU.1 (IVT), 3.9 z-score in assay [1] and 0.923 z-score in assay [2].

GGAAAGGGGAAGTGTGCCAT: the results for the binding signal (with PU.1 (IVT); in assay [1]; in assay [2]) were 7.33 z-score, 7.02 z-score and 3.39 z-score, respectively.

Turning to CAAAAAGGGAATTGGATGCT, the results for the binding signal (in the assay with PU.1 (IVT); in assay [1]; in assay [2]) were 1.78 z-score, 1.27 z-score and 0.744 z-score, respectively.

As for GAATTGAGGAAGTCCTCCCA, the values for the binding signal (with PU.1 (IVT); in assay [1]; in assay [2]) were 6.34 z-score, 6.64 z-score and 2.88 z-score, respectively.

With AGAATGGGGAAGTGGAGAGA, the figures for the binding signal (with PU.1 (IVT); in assay [1]; in assay [2]) were 6.3 z-score, 6.51 z-score and 2.26 z-score, respectively.

Turning to AGAAAAAGGAACTGAGGGAG, the results for the binding signal (in the assay with PU.1 (IVT); in assay [1]; in assay [2]) were 3.23 z-score, 3.2 z-score and 0.768 z-score, respectively.

In the case of AAAAACAGGAAGTGGCCGGC, the binding signal turned out to be 7.9 z-score with PU.1 (IVT), 7.34 z-score in assay [1] and 5.13 z-score in assay [2].

As for GTGCAAAGGAAGTGCCCACA, the binding signal was determined as 1.07 z-score with PU.1 (IVT), 1.18 z-score in assay [1] and 2.12 z-score in assay [2].

As for CAAATAAGGAAGTGGGTGTT, the results for the binding signal (with PU.1 (IVT); in assay [1]; in assay [2]) were 6.04 z-score, 6.31 z-score and 3.37 z-score, respectively.

As to AGGAGGAGGAAGTGGAGAAA, the binding signal in the assay with PU.1 (IVT) came out at 4.4 z-score; in assay [1], 4.42 z-score; in assay [2], 2.73 z-score.

Turning to GATAAGAGGAAGGCCTCTGT, the binding signal is 1.63 z-score in the assay with PU.1 (IVT), 2.24 z-score in assay [1] and 0.928 z-score in assay [2].

AAAAAGAGGAAGTCAGTTTG: the binding signal is 8.4 z-score with PU.1 (IVT), 7.5 z-score in assay [1] and 4.35 z-score in assay [2].

As for GTGCAGGGGAAGTGGGAAGG, the binding signal with PU.1 (IVT) worked out at 3.15 z-score; in assay [1], 3.06 z-score; in assay [2], 2.13 z-score.

For the sequence TCAAAGAGGAAGTGTGTCTA, the figures for the binding signal (with PU.1 (IVT); in assay [1]; in assay [2]) were 6.18 z-score, 6.6 z-score and 3.44 z-score, respectively.

As to AAAAAAAGGAACTGGCTACA, the binding signal in the assay with PU.1 (IVT) came to 4.54 z-score; in assay [1] it was 4.08 z-score; in assay [2] it was 1.58 z-score.

As for GAAAAGGGGAACTGGGTGCC, the binding signal turned out to be 5.91 z-score in the assay with PU.1 (IVT), 6.51 z-score in assay [1] and 1.9 z-score in assay [2].

In the case of AGAAAGTGGAAGTGGGAGGG, the binding signal with PU.1 (IVT) was 3.27 z-score; in assay [1] it was 3.35 z-score; in assay [2], 1.77 z-score.

On to CAGGAGAGGAACTGAGAATG, for which the figures for the binding signal (with PU.1 (IVT); in assay [1]; in assay [2]) were 1.76 z-score, 2.38 z-score and 0.996 z-score, respectively.

Consider GAAATAAGGAAGTCAATGTC, for which the binding signal with PU.1 (IVT) is 6.57 z-score; in assay [1], 6.56 z-score; in assay [2], 2.66 z-score.

Turning to CTGCAGAGGAAGTGGACCAC, the figures for the binding signal (with PU.1 (IVT); in assay [1]; in assay [2]) were 2.66 z-score, 2.86 z-score and 2.71 z-score, respectively.

In the case of AGCAGGAGGAAGTGTGGGGG, the binding signal with PU.1 (IVT) was determined as 3.47 z-score; in assay [1], 3.72 z-score; in assay [2] it was 2.27 z-score.

TAAAGGAGGAAGTGAAGAAG: the binding signal in the assay with PU.1 (IVT) is 5.7 z-score; in assay [1], 6.06 z-score; in assay [2], 3.01 z-score.

For GGAAGGAGGAAGTAAGCTGC, the figures for the binding signal (in the assay with PU.1 (IVT); in assay [1]; in assay [2]) were 5.58 z-score, 6.22 z-score and 2.89 z-score, respectively.

Consider AATATAAGGAAGTGGGCCAG, for which the values for the binding signal (in the assay with PU.1 (IVT); in assay [1]; in assay [2]) were 4.23 z-score, 4.77 z-score and 2.06 z-score, respectively.

With CCAGAGAGGAACTGGAGGAG, the binding signal with PU.1 (IVT) is 1.65 z-score; in assay [1], 2.32 z-score; in assay [2], 0.963 z-score.

Turning to GGAAAGAGGAAGTGAGGAAA, the binding signal came out at 7.77 z-score with PU.1 (IVT), 7.25 z-score in assay [1] and 3.96 z-score in assay [2].

On to GAGAAGAGGAAGTTCCTCCG, for which the binding signal with PU.1 (IVT) amounted to 6.82 z-score; in assay [1], 6.73 z-score; in assay [2], 3.61 z-score.

On to AAAATGAGGAAGTCATTCTT, for which the figures for the binding signal (with PU.1 (IVT); in assay [1]; in assay [2]) were 8.35 z-score, 7.52 z-score and 4.39 z-score, respectively.

For GAAAAGGGGAAGTCAGGCTT, the binding signal in the assay with PU.1 (IVT) was 7.71 z-score; in assay [1], 7.4 z-score; in assay [2] it was 3.37 z-score.

In the case of AAAAGTAGGAAGTGATTCAA, the binding signal with PU.1 (IVT) turned out to be 5.17 z-score; in assay [1], 4.84 z-score; in assay [2] it was 2.42 z-score.

As to GGAATGGGGAAGTGCTGGAC, the binding signal with PU.1 (IVT) was determined as 6.65 z-score; in assay [1], 6.53 z-score; in assay [2] it was 3.07 z-score.

In the case of AAAAGGAGGAAGTGATGATG, the binding signal in the assay with PU.1 (IVT) was found to be 6.55 z-score; in assay [1], 6.63 z-score; in assay [2], 3.3 z-score.

AGTTTGAGGAAGTGTTGCAA: the binding signal with PU.1 (IVT) turned out to be 6.25 z-score; in assay [1], 6.23 z-score; in assay [2], 2.6 z-score.

As for AAAATAAGGAAGTGCAATCA, the results for the binding signal (with PU.1 (IVT); in assay [1]; in assay [2]) were 6.87 z-score, 6.84 z-score and 2.79 z-score, respectively.

For ACCAAAAGGAACTGTGCCCC, the results for the binding signal (in the assay with PU.1 (IVT); in assay [1]; in assay [2]) were 0.337 z-score, 0.85 z-score and 0.424 z-score, respectively.

AGAGAGGGGAAGTGTTTCAG: the binding signal with PU.1 (IVT) is 3.71 z-score; in assay [1], 3.51 z-score; in assay [2], 2.27 z-score.

Consider GAGGTGAGGAAGTGGGAGGC, for which the figures for the binding signal (with PU.1 (IVT); in assay [1]; in assay [2]) were 2.83 z-score, 2.74 z-score and 1.71 z-score, respectively.

For AATAAGAGGAAGTGAAATAA, the binding signal in the assay with PU.1 (IVT) is 7.03 z-score; in assay [1], 7.12 z-score; in assay [2], 3.65 z-score.

Regarding AAGGAGAGGAAGTGACTGAT, the figures for the binding signal (with PU.1 (IVT); in assay [1]; in assay [2]) were 4.78 z-score, 4.47 z-score and 2.99 z-score, respectively.

With AAAATGGGGAAGTGACCTTA, the binding signal with PU.1 (IVT) amounted to 7.47 z-score; in assay [1], 7.38 z-score; in assay [2] it was 4.1 z-score.

As for ACCATAGGGAAGTGGAAACA, the binding signal with PU.1 (IVT) is 3.88 z-score; in assay [1], 3.9 z-score; in assay [2], 1.75 z-score.

For the sequence AAGAAGAGGAAGTGATGTTC, the binding signal with PU.1 (IVT) turned out to be 7.01 z-score; in assay [1] it was 6.77 z-score; in assay [2], 3.76 z-score.

Take TGAGAGGAGAAGTACTGTGT: the binding signal with PU.1 (IVT) is 1.72 z-score; in assay [1], 1.49 z-score; in assay [2], -0.175 z-score.

Take ACAATAGGGAAGTGATGGTG: the results for the binding signal (in the assay with PU.1 (IVT); in assay [1]; in assay [2]) were 5.26 z-score, 5.83 z-score and 1.91 z-score, respectively.

In the case of AAAAAAAGGAAGTGAAATAA, the figures for the binding signal (with PU.1 (IVT); in assay [1]; in assay [2]) were 6.66 z-score, 6.43 z-score and 2.98 z-score, respectively.

Turning to GGTCTGAGGAAGTGCACTTT, the figures for the binding signal (in the assay with PU.1 (IVT); in assay [1]; in assay [2]) were 3.16 z-score, 3.03 z-score and 1.54 z-score, respectively.

With AGAAAAAGGAAGTGAACACT, the figures for the binding signal (with PU.1 (IVT); in assay [1]; in assay [2]) were 5.74 z-score, 6.03 z-score and 2.93 z-score, respectively.

For TGAAAGAGGAAGTCAAATTG, the binding signal in the assay with PU.1 (IVT) worked out at 7.31 z-score; in assay [1], 7.09 z-score; in assay [2] it was 4.06 z-score.

Take ATGAAGAGGAAGTGAACTAA: the binding signal was determined as 5.04 z-score with PU.1 (IVT), 5.86 z-score in assay [1] and 3.17 z-score in assay [2].

Consider AGACAGAGGAAGTGAAGGGC, for which the binding signal worked out at 2.94 z-score with PU.1 (IVT), 3.15 z-score in assay [1] and 2.4 z-score in assay [2].

For the sequence TAGATGAGGAAGTGAGGCTG, the values for the binding signal (with PU.1 (IVT); in assay [1]; in assay [2]) were 5.41 z-score, 5.95 z-score and 2.4 z-score, respectively.

Take TGAAAGAGGAACTCTCACAT: the binding signal amounted to 4.89 z-score with PU.1 (IVT), 5.6 z-score in assay [1] and 1.47 z-score in assay [2].

Regarding AAAAAGAGGAAGAGGGGACA, the values for the binding signal (with PU.1 (IVT); in assay [1]; in assay [2]) were 5.23 z-score, 5.94 z-score and 1.82 z-score, respectively.

AAAAAAGGGAAGTGAAAATA: the binding signal in the assay with PU.1 (IVT) came to 7.69 z-score; in assay [1] it was 7.33 z-score; in assay [2], 3.85 z-score.

As to CAGATGAGGAACTGACTTAA, the figures for the binding signal (with PU.1 (IVT); in assay [1]; in assay [2]) were 4.12 z-score, 4.18 z-score and 1.33 z-score, respectively.
